# Test results published in the supplement of paper PMC8728848.
# This is one part of the list.
# Columns and labels:
# Experiment in all cases: glycan array binding signal (z-score within array); higher = stronger binding
# Conditions in all cases: glycan notation: IUPAC condensed, linker removed
# [1] = biological target: Neu5Ac(a2-3)Gal(b1-3)]Neu5Ac(a2-3)Gal(b1-4)]GlcNAc
# Method in brief: (§1)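 Glycan array data came from 3228 arrays in the Consortium for Functional Glycomics database, and only arrays with an available protein sequence were kept. Glycan names were put into IUPAC-condensed notation, and columns mapping to the same glycan were averaged. The binding signal is a within-array Z-score, averaged across arrays of one protein sequence run at different concentrations or buffers and across linkers. A negative Z-score can be read as non-binding.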
# Neu5Ac(a2-3)Gal(b1-4)Glc = biological target: Neu5Ac(a2-3)Gal(b1-4)Glc
# Method in brief: as §1
# [2] = biological target: Neu5Ac(a2-3)Gal(b1-4)GlcNAc
# Method in brief: as §1
# [3] = biological target: Neu5Ac(a2-3)Gal(b1-4)GlcNAc(b1-2)Man
# Method in brief: as §1
# [4] = biological target: Neu5Ac(a2-3)Gal(b1-4)GlcNAc(b1-2)Man(a1-3)[GlcNAc(b1-4)][Neu5Ac(a2-3)Gal(b1-4)GlcNAc(b1-2)Man(a1-6)]Man(b1-4)GlcNAc(b1-4)GlcNAc
# Method in brief: as §1
# [5] = biological target: Neu5Ac(a2-3)Gal(b1-4)GlcNAc(b1-2)Man(a1-3)[Neu5Ac(a2-3)Gal(b1-4)GlcNAc(b1-2)Man(a1-6)]Man(b1-4)GlcNAc(b1-4)GlcNAc
# Method in brief: as §1
# [6] = biological target: Neu5Ac(a2-3)Gal(b1-4)GlcNAc(b1-2)Man(a1-3)[Neu5Ac(a2-3)Gal(b1-4)GlcNAc(b1-2)Man(a1-6)]Man(b1-4)GlcNAc(b1-4)[Fuc(a1-6)]GlcNAc
# Method in brief: as §1
# [7] = biological target: Neu5Ac(a2-3)Gal(b1-4)GlcNAc(b1-2)Man(a1-3)[Neu5Ac(a2-6)Gal(b1-4)GlcNAc(b1-2)Man(a1-6)]Man(b1-4)GlcNAc(b1-4)GlcNAc
# Method in brief: as §1
# [8] = biological target: Neu5Ac(a2-3)Gal(b1-4)GlcNAc(b1-2)[Neu5Ac(a2-3)Gal(b1-4)GlcNAc(b1-4)]Man(a1-3)[GlcNAc(b1-4)][Neu5Ac(a2-3)Gal(b1-4)GlcNAc(b1-2)[Neu5Ac(a2-3)Gal(b1-4)GlcNAc(b1-6)]Man(a1-6)]Man(b1-4)GlcNAc(b1-4)GlcNAc
# Method in brief: as §1
# [9] = biological target: Neu5Ac(a2-3)Gal(b1-4)GlcNAc(b1-2)[Neu5Ac(a2-3)Gal(b1-4)GlcNAc(b1-4)]Man(a1-3)[GlcNAc(b1-4)][Neu5Ac(a2-3)Gal(b1-4)GlcNAc(b1-4)Man(a1-6)]Man(b1-4)GlcNAc(b1-4)GlcNAc
# Method in brief: as §1
# [10] = biological target: Neu5Ac(a2-3)Gal(b1-4)GlcNAc(b1-2)[Neu5Ac(a2-3)Gal(b1-4)GlcNAc(b1-6)]Man(a1-6)[Neu5Ac(a2-3)Gal(b1-4)GlcNAc(b1-2)Man(a1-3)][GlcNAc(b1-4)]Man(b1-4)GlcNAc(b1-4)GlcNAc
# Method in brief: as §1
# [11] = biological target: Neu5Ac(a2-3)Gal(b1-4)GlcNAc(b1-3)Gal
# Method in brief: as §1
# [12] = biological target: Neu5Ac(a2-3)Gal(b1-4)GlcNAc(b1-3)Gal(b1-3)GlcNAc
# Method in brief: as §1
# [13] = biological target: Neu5Ac(a2-3)Gal(b1-4)GlcNAc(b1-3)Gal(b1-4)GlcNAc
# Method in brief: as §1
# [14] = biological target: Neu5Ac(a2-3)Gal(b1-4)GlcNAc(b1-3)Gal(b1-4)GlcNAc(b1-2)Man(a1-3)[Neu5Ac(a2-3)Gal(b1-4)GlcNAc(b1-3)Gal(b1-4)GlcNAc(b1-2)Man(a1-6)]Man(b1-4)GlcNAc(b1-4)GlcNAc
# Method in brief: as §1
# [15] = biological target: Neu5Ac(a2-3)Gal(b1-4)GlcNAc(b1-3)Gal(b1-4)GlcNAc(b1-3)Gal(b1-4)GlcNAc
# Method in brief: as §1
# [16] = biological target: Neu5Ac(a2-3)Gal(b1-4)GlcNAc(b1-3)Gal(b1-4)GlcNAc(b1-3)Gal(b1-4)GlcNAc(b1-2)Man(a1-3)[Neu5Ac(a2-3)Gal(b1-4)GlcNAc(b1-3)Gal(b1-4)GlcNAc(b1-3)Gal(b1-4)GlcNAc(b1-2)Man(a1-6)]GalNAc
# Method in brief: as §1
# [17] = biological target: Neu5Ac(a2-3)Gal(b1-4)GlcNAc(b1-3)Gal(b1-4)GlcNAc(b1-3)GalNAc
# Method in brief: as §1
# [18] = biological target: Neu5Ac(a2-3)Gal(b1-4)GlcNAc(b1-3)Gal(b1-4)GlcNAc(b1-3)[Neu5Ac(a2-3)Gal(b1-4)GlcNAc(b1-3)Gal(b1-4)GlcNAc(b1-6)]GalNAc
# Method in brief: as §1
# [19] = biological target: Neu5Ac(a2-3)Gal(b1-4)GlcNAc(b1-3)Gal(b1-4)GlcNAc(b1-6)[Gal(b1-3)]GalNAc
# Method in brief: as §1
# [20] = biological target: Neu5Ac(a2-3)Gal(b1-4)GlcNAc(b1-3)Gal(b1-4)[Fuc(a1-3)]GlcNAc
# Method in brief: as §1
# [21] = biological target: Neu5Ac(a2-3)Gal(b1-4)GlcNAc(b1-3)GalNAc
# Method in brief: as §1
# [22] = biological target: Neu5Ac(a2-3)Gal(b1-4)GlcNAc(b1-3)[Neu5Ac(a2-3)Gal(b1-4)GlcNAc(b1-6)]GalNAc
# Method in brief: as §1
# [23] = biological target: Neu5Ac(a2-3)Gal(b1-4)GlcNAc(b1-6)GalNAc
# Method in brief: as §1
# [24] = biological target: Neu5Ac(a2-3)Gal(b1-4)GlcNAc(b1-6)[Gal(b1-3)]GalNAc
# Method in brief: as §1
# [25] = biological target: Neu5Ac(a2-3)Gal(b1-4)GlcNAc(b1-6)[Neu5Ac(a2-3)Gal(b1-3)]GalNAc
# Method in brief: as §1
# [26] = biological target: Neu5Ac(a2-3)Gal(b1-4)GlcNAc6S
# Method in brief: as §1
# [27] = biological target: Neu5Ac(a2-3)Gal(b1-4)[Fuc(a1-3)]GlcNAc
# Method in brief: as §1
# [28] = biological target: Neu5Ac(a2-3)Gal(b1-4)[Fuc(a1-3)]GlcNAc(b1-2)Man
# Method in brief: as §1
# [29] = biological target: Neu5Ac(a2-3)Gal(b1-4)[Fuc(a1-3)]GlcNAc(b1-3)Gal
# Method in brief: as §1
# [30] = biological target: Neu5Ac(a2-3)Gal(b1-4)[Fuc(a1-3)]GlcNAc(b1-3)Gal(b1-4)GlcNAc
# Method in brief: as §1
# [31] = biological target: Neu5Ac(a2-3)Gal(b1-4)[Fuc(a1-3)]GlcNAc(b1-3)Gal(b1-4)[Fuc(a1-3)]GlcNAc(b1-3)Gal(b1-4)[Fuc(a1-3)]GlcNAc
# Method in brief: as §1
# [32] = biological target: Neu5Ac(a2-3)Gal(b1-4)[Fuc(a1-3)]GlcNAc(b1-3)GalNAc
# Method in brief: as §1
# [33] = biological target: Neu5Ac(a2-3)Gal(b1-4)[Fuc(a1-3)]GlcNAc(b1-6)[Gal(b1-3)]GalNAc
# Method in brief: as §1
# [34] = biological target: Neu5Ac(a2-3)Gal(b1-4)[Fuc(a1-3)]GlcNAc(b1-6)[Neu5Ac(a2-3)Gal(b1-3)]GalNAc
# Method in brief: as §1
# [35] = biological target: Neu5Ac(a2-3)Gal(b1-4)[Fuc(a1-3)]GlcNAc6S
# Method in brief: as §1
# [36] = biological target: Neu5Ac(a2-3)Gal6S(b1-4)GlcNAc
# Method in brief: as §1
# [37] = biological target: Neu5Ac(a2-3)Gal6S(b1-4)[Fuc(a1-3)]GlcNAc
# Method in brief: as §1
binder,measurement,setting,value
Mg1lysM (Mycosphaerella graminicola) (protein) QRNPITITPQFDCGATNSQQYVARSGDTLTKIAQEIYHDVVGVCDIARANNLADPNRIDAGTPYTIPINCQTYDRNSCL,glycan array binding signal (z-score),[1],-0.077
same,glycan array binding signal (z-score),Neu5Ac(a2-3)Gal(b1-4)Glc,-0.076
same,glycan array binding signal (z-score),[2],-0.068
same,glycan array binding signal (z-score),[3],-0.068
same,glycan array binding signal (z-score),[4],-0.076
same,glycan array binding signal (z-score),[5],-0.051
same,glycan array binding signal (z-score),[6],-0.06
same,glycan array binding signal (z-score),[7],-0.073
same,glycan array binding signal (z-score),[8],-0.082
same,glycan array binding signal (z-score),[9],-0.088
same,glycan array binding signal (z-score),[10],-0.074
same,glycan array binding signal (z-score),[11],-0.066
same,glycan array binding signal (z-score),[12],-0.08
same,glycan array binding signal (z-score),[13],-0.072
same,glycan array binding signal (z-score),[14],-0.062
same,glycan array binding signal (z-score),[15],-0.064
same,glycan array binding signal (z-score),[16],-0.071
same,glycan array binding signal (z-score),[17],-0.077
same,glycan array binding signal (z-score),[18],-0.073
same,glycan array binding signal (z-score),[19],-0.068
same,glycan array binding signal (z-score),[20],-0.09
same,glycan array binding signal (z-score),[21],-0.081
same,glycan array binding signal (z-score),[22],0.001
same,glycan array binding signal (z-score),[23],-0.063
same,glycan array binding signal (z-score),[24],-0.093
same,glycan array binding signal (z-score),[25],-0.062
same,glycan array binding signal (z-score),[26],-0.075
same,glycan array binding signal (z-score),[27],-0.073
same,glycan array binding signal (z-score),[28],-0.075
same,glycan array binding signal (z-score),[29],-0.079
same,glycan array binding signal (z-score),[30],-0.052
same,glycan array binding signal (z-score),[31],-0.047
same,glycan array binding signal (z-score),[32],-0.048
same,glycan array binding signal (z-score),[33],-0.059
same,glycan array binding signal (z-score),[34],-0.059
same,glycan array binding signal (z-score),[35],-0.092
same,glycan array binding signal (z-score),[36],-0.067
same,glycan array binding signal (z-score),[37],-0.078
